The supplement of paper PMC4604168 (melanoma cell lines)
This is one part of the list. Many values rest on one well or one pass, so single values are uncertain.

tested on: WM115; assay: cell count relative to DMSO control; melanoma cells; higher = more viable cells; settings: library dose: standard library concentration; 72 h; first compound 2 µM
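Further: cells treated in 1,536-well plates, then fixed and DAPI-stained, with nuclei counted from automated high-throughput microscope images.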

SMILES | cell count
CCCCCCCCCCCCCCCCCCOP(=O)([O-])OC1CC[N+](C)(C)CC1 [Perifosine] + OCc1c[nH]c2ccccc12 [Indole-3-carbinol] (partner dose 4 µM) | 88.8%
C[C@@H](N)c1ccc(C(=O)Nc2ccnc3[nH]ccc23)cc1 + CS(=O)(=O)CCNCc1ccc(-c2ccc3ncnc(Nc4ccc(OCc5cccc(F)c5)c(Cl)c4)c3c2)o1 [lapatinib] (partner dose 4 µM) | 115%
Cn1sc(=O)n(Cc2ccccc2)c1=O + O=C(O)c1ccc(-c2c[nH]c3ncc(-c4ccccc4)cc23)cc1C1CCCC1 [GSK650394] (partner dose 0.8 µM) | 73.8%
Cn1sc(=O)n(Cc2ccccc2)c1=O + Cn1nnc2c(C(N)=O)ncn2c1=O [temozolomide] (partner dose 10 µM) | 79.8%
